# Measured values published in publication PMC12040169 (PLOS Biology, 2025).
# This is one part of the list.
# System: T1, C. trachomatis L2/434/Bu expressing GFP (CTL2-GFP)
# T1 construct: L2/434/Bu GFP intracellular growth in HeLa cells
# Parameters: species or system HeLa; C. trachomatis total inclusion area by high-content imaging, normalised to DMSO
# Conditions: total inclusion area; 28.5 h, 10 µM; inhibitor
# In short: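 After bulk GFP and resorufin fluorescence reads, cells were fixed, stained with Hoechst and imaged by high-content microscopy. Inclusion area and number (GFP) stood in for chlamydial growth, nuclei count (Hoechst) for host cell viability. MICs were derived as for the bulk readout.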
row,Structure (SMILES),% of control remaining
1,O=C(CSc1ncnc2[nH]ncc12)c1ccc(-c2ccccc2)cc1 [CBK300519],143.425
2,CN1CCC(N[C@H]2CC(C)(C)[C@@H]3C[C@@](C)(O)CC[C@]23CCC(=O)N2CCOCC2)CC1 [CBK289040],108.754
3,O=C(Cn1nnc2ccccc21)NC(c1ccccc1)c1ccccc1 [CBK297488],75.1743
4,Cc1ccc(Nc2ncc(C(=O)NCCCN3CCCCCC3)c3ccccc23)cc1Cl [CBK291197],104.486
5,O=C(CC1Nc2ccccc2NC1=O)Nc1ccc(F)c(Cl)c1 (stereo not drawn) [CBK266381],103.671
6,O=C(CCOc1ccccc1)Nc1cnc(-c2ccc(F)cc2)c(-c2ccco2)n1 [CBK036967],80.9841
7,COc1ccc(Br)cc1S(=O)(=O)NCC(=O)Nc1ccc(F)cc1 [CBK042223],63.0956
8,C=CCn1c(=O)c(C(=O)NCCCO)c(O)c2ccccc21 [CBK262481],78.6167
9,Cc1nn(CC(=O)N2CCCCC2)c(=O)c2cc3sccc3n12 [CBK284040],107.102
10,Cc1ccc(NC(=O)c2cc(NC(=O)c3ccccc3C(=O)O)ccc2N2CCCCC2)cc1 [CBK265332],91.0348
11,COc1ccc(NS(=O)(=O)c2cc(C(=O)O)cc(C)c2C)cc1OC [CBK295148],77.5171
12,Cn1ccnc1C(O)(c1ccccc1)c1nccn1C [CBK262084],91.5377
13,Cc1ccc(-c2cc(CC3(C(=O)NC4CC4)CCOCC3)on2)cc1 [CBK284946],74.8614
14,c1cncc(CNc2nc(-c3cccs3)cn3ccnc23)c1 [CBK066687],125.346
15,COc1ccccc1-c1nccnc1NCC(C)O (stereo not drawn) [CBK037637],90.5866
16,COc1cncc(-c2cc(Nc3ccc(O)cc3)ncn2)c1 [CBK090752],92.637
17,CC1(C)CC(=O)C(C(=S)Nc2ccc(F)cc2)=C(NCc2ccc3c(c2)OCO3)C1 [CBK264779],123.401
18,c1c(CC2CCCCC2)nnn1[C@H]1CO[C@H]2[C@@H]1OC[C@@H]2NCC1CC1 [CBK289511],78.3771
19,CCOc1ccc(NC(=O)N(Cc2ccccn2)CC2CCCO2)cc1 (stereo not drawn) [CBK306847],84.0776
20,O=C(Cc1ccccc1)Nc1ccc(Oc2ccc(C(=O)O)c(C(=O)O)c2)cc1 [CBK263611],99.6713
21,COc1ccc(OCC(=O)Nc2cc3oc4ccccc4c3cc2OC)cc1 [CBK262608],102.342
22,COCCN1C(=O)C2(CC(=O)N(Cc3ccccc3)C2=O)c2cc(OC)ccc21 (stereo not drawn) [CBK075177],92.5964
23,Cc1cc(NC(=O)c2ccc(Br)cc2)nc2c1c(=O)oc1ccccc12 [CBK291262],96.1533
24,Cc1[nH]c2ccccc2c1C(=O)CSc1nc(N)cc(=O)[nH]1 [CBK297511],69.4434
25,CN(C)c1cccc(-c2cc(Nc3ccc4c(c3)OCCO4)ncn2)c1 [CBK090808],51.7227
26,CCNS(=O)(=O)c1ccc2c(c1)N(Cc1nc(-c3ccco3)no1)CC2 [CBK306184],29.0182

row,Structure (SMILES),% of control remaining
1,Nc1cc(Cl)nc(SCC2CCCCC2)n1 [CBK007970],30.0599
2,Nc1cc(O)n(Cc2ccco2)c(=S)n1 [CBK006010],86.9611
3,CCCCCOc1ccc(NS(=O)(=O)c2cccc(C(=O)O)c2)cc1 [CBK299795],107.091
4,FC(F)(F)c1ccc(CN2CCC(Oc3nccnc3OCc3cccnc3)CC2)cc1 [CBK083160T],100.343
5,O=C(C1CC2C=CC1C21CC1)N1CCC(Oc2cccnc2)CC1 (stereo not drawn) [CBK281501],92.9074
6,CCN1C(=O)COC[C@@H]1[C@H](O)c1ccc(NC(=O)c2ccc(C#N)cc2)cc1 [CBK289689],101.575
7,Cc1cc(=O)[nH]c(C)c1C(=O)N1CCC(N2CCCC(CO)C2)CC1 (stereo not drawn) [CBK307158],83.0477
8,O=C(Cc1ccsc1)N1CCN(C(=O)c2ccco2)CC1 [CBK144446],84.9889
9,CC(CNC(=O)COc1cc(Cl)c(Cl)cc1Cl)CN(C)C (stereo not drawn) [CBK266766],105.21
10,CC(C)(C)c1ccc(-c2ccc3ccc(N)nc3n2)cc1 [CBK061872],75.291
11,OCCn1c(COc2cccc3cccnc23)nc2ccccc21 [CBK269942],76.1981
12,O=C(c1[nH]c2ccccc2c1NS(=O)(=O)Cc1ccccc1)N1CCOCC1 [CBK050067],80.4843
13,O=C(NCc1cccnc1)C(=O)Nc1cc2c3c(c1)CCC(=O)N3CCC2 [CBK287728],78.5594
14,CCCN(CC1CC1)C(=O)Cn1c([C@@H]2CCCO2)cc2cccnc21 [CBK282871],83.6692
15,O=C(CNS(=O)(=O)c1ccc(Cl)c(Cl)c1Cl)N1CCOCC1 [CBK034472],101.511
16,O=C(NCCNCc1ccccc1)c1ccccc1 [CBK012505],22.7125
17,CC(C)C(CCC(=O)Nc1ccccc1[N+](=O)[O-])C(=O)O (stereo not drawn) [CBK268356],108.622
18,Cc1ccccc1CSCC(=O)Nc1c[nH]c(=O)[nH]c1=O [CBK269790],77.9342
19,CC(C)(C)Nc1c(C2CCCN(C(=O)C3CC3)C2)nc2ccccn12 (stereo not drawn) [CBK284759],79.4101
20,CC1(C)CC(/N=C(\c2ccccc2)c2ccc(O)cc2O)CC(C)(C)N1 [CBK262004],86.2874
21,COCc1nnc(NS(=O)(=O)c2ccc(Br)cc2)s1 [CBK045526],122.949
22,CCCCCc1c(C)nc(-c2ccccn2)nc1O [CBK017441],42.2686
23,O=c1c(Oc2ccc3ccccc3c2)c(C(F)(F)F)oc2c(CN3CCOCC3)c(O)ccc12 [CBK264487],111.437
24,Cc1cccc(OCC(C)NC(=O)N2CCCC2c2cnn(C)c2)c1 (stereo not drawn) [CBK304100],94.1555
25,CN(C)C(=O)Cn1c(=O)n(Cc2cccs2)c2ncccc21 [CBK283902],98.0982
